{"sequences": {"note": "Chains of the proteins cited; added tags and fusions are not shown.", "UniProt P50549": "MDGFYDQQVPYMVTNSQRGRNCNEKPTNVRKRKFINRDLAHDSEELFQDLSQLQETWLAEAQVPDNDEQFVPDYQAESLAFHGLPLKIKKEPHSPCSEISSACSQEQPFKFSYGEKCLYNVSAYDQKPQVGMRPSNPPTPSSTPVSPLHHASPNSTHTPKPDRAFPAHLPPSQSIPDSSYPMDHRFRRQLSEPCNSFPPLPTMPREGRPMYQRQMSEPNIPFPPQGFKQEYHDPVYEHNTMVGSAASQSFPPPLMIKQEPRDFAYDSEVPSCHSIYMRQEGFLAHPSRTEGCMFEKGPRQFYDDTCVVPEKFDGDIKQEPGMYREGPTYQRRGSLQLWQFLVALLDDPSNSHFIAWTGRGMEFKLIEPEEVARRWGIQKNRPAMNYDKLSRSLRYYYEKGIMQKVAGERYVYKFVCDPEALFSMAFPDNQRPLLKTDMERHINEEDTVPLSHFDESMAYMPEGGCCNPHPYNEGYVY", "UniProt P41161": "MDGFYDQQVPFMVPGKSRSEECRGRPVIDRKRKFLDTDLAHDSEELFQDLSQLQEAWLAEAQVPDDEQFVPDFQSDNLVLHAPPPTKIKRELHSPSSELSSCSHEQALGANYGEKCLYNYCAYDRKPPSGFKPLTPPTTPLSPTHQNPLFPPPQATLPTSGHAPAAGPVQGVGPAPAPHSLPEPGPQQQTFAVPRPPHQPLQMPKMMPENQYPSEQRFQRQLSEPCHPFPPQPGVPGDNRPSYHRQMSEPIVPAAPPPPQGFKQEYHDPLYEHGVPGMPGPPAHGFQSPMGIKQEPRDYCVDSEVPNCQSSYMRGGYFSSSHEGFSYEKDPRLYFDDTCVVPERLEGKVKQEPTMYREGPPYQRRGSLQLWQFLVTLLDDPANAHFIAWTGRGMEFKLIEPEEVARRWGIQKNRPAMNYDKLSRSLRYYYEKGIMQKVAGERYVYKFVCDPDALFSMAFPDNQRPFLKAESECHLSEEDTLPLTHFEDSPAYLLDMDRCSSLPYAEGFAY", "UniProt P43268": "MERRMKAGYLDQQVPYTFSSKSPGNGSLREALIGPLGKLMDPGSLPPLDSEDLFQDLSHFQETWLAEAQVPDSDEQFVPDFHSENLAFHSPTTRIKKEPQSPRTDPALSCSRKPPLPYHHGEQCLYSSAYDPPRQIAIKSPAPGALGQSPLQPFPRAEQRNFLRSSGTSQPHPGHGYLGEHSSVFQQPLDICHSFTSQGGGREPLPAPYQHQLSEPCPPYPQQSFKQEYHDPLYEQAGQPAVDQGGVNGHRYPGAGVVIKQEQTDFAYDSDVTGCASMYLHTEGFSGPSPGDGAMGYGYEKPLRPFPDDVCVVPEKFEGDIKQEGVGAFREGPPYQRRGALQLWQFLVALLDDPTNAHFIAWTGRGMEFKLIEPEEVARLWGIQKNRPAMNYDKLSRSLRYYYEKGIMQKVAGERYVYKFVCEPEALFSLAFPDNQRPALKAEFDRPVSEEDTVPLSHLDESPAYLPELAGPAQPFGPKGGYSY", "UniProt P11940": "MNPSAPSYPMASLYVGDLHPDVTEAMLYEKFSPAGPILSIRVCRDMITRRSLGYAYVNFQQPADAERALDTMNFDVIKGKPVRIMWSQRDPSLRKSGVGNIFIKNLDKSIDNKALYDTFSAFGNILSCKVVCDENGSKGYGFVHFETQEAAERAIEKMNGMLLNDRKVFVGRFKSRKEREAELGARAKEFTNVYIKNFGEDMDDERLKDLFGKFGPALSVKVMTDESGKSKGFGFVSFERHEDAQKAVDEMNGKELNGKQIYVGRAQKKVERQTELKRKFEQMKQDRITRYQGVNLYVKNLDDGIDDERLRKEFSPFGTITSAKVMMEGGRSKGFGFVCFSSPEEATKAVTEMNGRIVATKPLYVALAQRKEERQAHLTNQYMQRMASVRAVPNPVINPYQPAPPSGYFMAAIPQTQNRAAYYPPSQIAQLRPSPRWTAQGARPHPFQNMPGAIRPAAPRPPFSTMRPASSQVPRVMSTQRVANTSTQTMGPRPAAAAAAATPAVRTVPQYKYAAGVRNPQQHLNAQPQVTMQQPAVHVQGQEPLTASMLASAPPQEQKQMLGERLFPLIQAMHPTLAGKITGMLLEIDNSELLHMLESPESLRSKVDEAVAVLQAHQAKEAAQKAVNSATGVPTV"}, "source": "paper PMC10704431", "about": "“A complex with poly(A)-binding protein and EWS facilitates the transcriptional function of oncogenic ETS transcription factors in prostate cells” (The Journal of Biological Chemistry, 2023)", "key": {"purified ETV1": {"target": "purified ETV1 (UniProt P50549)", "assay": "pull-down; purified His-tagged protein (ERG, other ETS factors or PABPC1) on nickel / His isolation magnetic beads; purified GST-tagged protein added; NP-40 lysis buffer (50 mM Tris-HCl pH 7.4, 250 mM NaCl, 5 mM EDTA, 50 mM NaF, 1% NP-40) with BSA, 4 °C, 2 h; immunoblot; both purified"}, "purified FLI1": {"target": "T1, purified FLI1 (UniProt Q01543)", "T1 sequence": "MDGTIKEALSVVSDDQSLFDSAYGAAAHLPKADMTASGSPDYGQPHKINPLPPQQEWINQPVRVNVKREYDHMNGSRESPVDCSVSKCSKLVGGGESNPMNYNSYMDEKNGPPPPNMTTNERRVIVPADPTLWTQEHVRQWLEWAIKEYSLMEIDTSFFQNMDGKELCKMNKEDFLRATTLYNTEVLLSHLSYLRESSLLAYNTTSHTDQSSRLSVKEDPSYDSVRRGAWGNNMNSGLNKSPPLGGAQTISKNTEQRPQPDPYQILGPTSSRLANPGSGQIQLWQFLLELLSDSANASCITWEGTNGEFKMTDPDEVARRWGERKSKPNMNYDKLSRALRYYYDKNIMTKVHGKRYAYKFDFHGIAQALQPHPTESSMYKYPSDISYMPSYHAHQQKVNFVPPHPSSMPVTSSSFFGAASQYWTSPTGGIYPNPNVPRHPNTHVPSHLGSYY", "assay": "pull-down; purified His-tagged protein (ERG, other ETS factors or PABPC1) on nickel / His isolation magnetic beads; purified GST-tagged protein added; NP-40 lysis buffer (50 mM Tris-HCl pH 7.4, 250 mM NaCl, 5 mM EDTA, 50 mM NaF, 1% NP-40) with BSA, 4 °C, 2 h; immunoblot; both purified"}, "purified ETV5": {"target": "purified ETV5 (UniProt P41161)", "assay": "pull-down; purified His-tagged protein (ERG, other ETS factors or PABPC1) on nickel / His isolation magnetic beads; purified GST-tagged protein added; NP-40 lysis buffer (50 mM Tris-HCl pH 7.4, 250 mM NaCl, 5 mM EDTA, 50 mM NaF, 1% NP-40) with BSA, 4 °C, 2 h; immunoblot; both purified"}, "purified ETV4": {"target": "purified ETV4 (UniProt P43268)", "assay": "pull-down; purified His-tagged protein (ERG, other ETS factors or PABPC1) on nickel / His isolation magnetic beads; purified GST-tagged protein added; NP-40 lysis buffer (50 mM Tris-HCl pH 7.4, 250 mM NaCl, 5 mM EDTA, 50 mM NaF, 1% NP-40) with BSA, 4 °C, 2 h; immunoblot; both purified"}, "GST-EWS 1 to 355 (ntEWS)": {"target": "T2, GST-EWS 1 to 355 (ntEWS) (UniProt Q01844)", "T2 sequence": "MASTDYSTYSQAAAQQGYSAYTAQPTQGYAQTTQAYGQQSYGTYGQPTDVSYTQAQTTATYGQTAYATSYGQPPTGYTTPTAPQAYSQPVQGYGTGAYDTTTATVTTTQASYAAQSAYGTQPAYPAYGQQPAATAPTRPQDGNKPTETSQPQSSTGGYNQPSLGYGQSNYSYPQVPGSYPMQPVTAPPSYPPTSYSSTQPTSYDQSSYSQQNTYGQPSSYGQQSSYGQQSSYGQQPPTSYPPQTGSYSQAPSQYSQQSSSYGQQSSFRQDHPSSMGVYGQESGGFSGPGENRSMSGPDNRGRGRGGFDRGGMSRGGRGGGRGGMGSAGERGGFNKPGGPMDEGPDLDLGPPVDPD", "assay": "pull-down; purified GST-tagged EWS fragment on glutathione magnetic beads; purified His-tagged protein (PABPC1 or ERG) added, no third protein; immunoblot; both purified"}, "[1]": {"target": "FLAG-tagged ETV4 expressed in RWPE cells (UniProt P43268)", "assay": "co-IP; whole-cell extracts in NP-40 lysis buffer (250 mM NaCl, 1% NP-40), antibody on magnetic Dynabeads, 4 °C, 4 h; immunoblot"}, "[2]": {"target": "T3, endogenous ERG of TMPRSS2/ERG-positive VCaP cells (human (endogenous in VCaP)) (UniProt P11308)", "T3 sequence": "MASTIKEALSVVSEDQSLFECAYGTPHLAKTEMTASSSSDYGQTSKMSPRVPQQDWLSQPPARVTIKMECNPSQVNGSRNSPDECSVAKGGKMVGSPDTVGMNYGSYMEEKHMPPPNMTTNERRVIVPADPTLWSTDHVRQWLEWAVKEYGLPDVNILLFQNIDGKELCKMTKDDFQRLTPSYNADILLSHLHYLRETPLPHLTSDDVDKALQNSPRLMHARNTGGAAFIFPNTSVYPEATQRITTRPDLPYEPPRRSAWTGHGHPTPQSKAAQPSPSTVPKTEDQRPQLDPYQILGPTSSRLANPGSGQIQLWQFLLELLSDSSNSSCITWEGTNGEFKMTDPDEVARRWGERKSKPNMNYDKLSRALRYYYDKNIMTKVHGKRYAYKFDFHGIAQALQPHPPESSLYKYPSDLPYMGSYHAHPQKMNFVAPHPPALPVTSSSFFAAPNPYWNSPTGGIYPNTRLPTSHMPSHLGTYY", "assay": "co-IP; whole-cell extracts in NP-40 lysis buffer (250 mM NaCl, 1% NP-40), antibody on magnetic Dynabeads, 4 °C, 4 h; immunoblot"}, "[3]": {"target": "endogenous full-length EWS of VCaP cells (human (endogenous in VCaP)) (UniProt Q01844)", "assay": "co-IP; whole-cell extracts in NP-40 lysis buffer (250 mM NaCl, 1% NP-40), antibody on magnetic Dynabeads, 4 °C, 4 h; immunoblot"}, "[4]": {"target": "hemagglutinin-tagged ctEWS expressed in PC3 cells (UniProt Q01844)", "assay": "co-IP; nuclear fraction of cells (modified RIPA buffer, 100 mM NaCl, 0.5% NP-40); immunoblot"}}, "note": "Results are given in words; binding and its absence hold for the method and conditions named. For part of these data: Binding seen in cells or lysates may run through a third protein. Some entries that bind do so weakly or less than the wild type. For part of these data: Where a sequence is shown, tags or fusion partners need not be part of it.", "data": [{"substance": "GST-PABPC1 (from UniProt P11940 1-636)", "values": [{"measurement": "binding", "setting": "purified ETV1", "value": "no binding"}, {"measurement": "binding", "setting": "purified FLI1", "value": "no binding"}, {"measurement": "binding", "setting": "purified ETV5", "value": "binds"}, {"measurement": "binding", "setting": "purified ETV4", "value": "binds"}]}, {"substance": "His-PABPC1 (from UniProt P11940 1-636)", "values": [{"measurement": "binding", "setting": "GST-EWS 1 to 355 (ntEWS)", "value": "no binding"}]}, {"substance": "PABPC1, endogenous in RWPE cells (from UniProt P11940 1-636)", "values": [{"measurement": "binding", "setting": "[1]", "value": "binds"}]}, {"substance": "PABPC1, endogenous in VCaP cells (from UniProt P11940 1-636)", "values": [{"measurement": "binding", "setting": "[2]", "value": "binds"}, {"measurement": "binding", "setting": "[3]", "value": "binds"}]}, {"substance": "cytoplasmic poly-adenylate-binding protein 1 (PABPC1), endogenous in PC3 cells (from UniProt P11940 1-636)", "values": [{"measurement": "binding", "setting": "[4]", "value": "binds"}]}]}
